From the supplement of paper PMC3334620
The full ranking holds about 33,000 sequences; the median of “E-score (-0.5 to 0.5)” is about -0.011, and the highest 2% start at about 0.28. This is one part of the list.

What follows are sequences tested against T1, Gcr1 (UniProt P07261) (assay: PBM E-score (8-mer binding enrichment) (E-score (-0.5 to 0.5)); higher = stronger / more preferred TF binding; most listed sequences are background and not binding sites). Conditions: protein concentration: 100 nM; construct: GST-full length.
T1 sequence: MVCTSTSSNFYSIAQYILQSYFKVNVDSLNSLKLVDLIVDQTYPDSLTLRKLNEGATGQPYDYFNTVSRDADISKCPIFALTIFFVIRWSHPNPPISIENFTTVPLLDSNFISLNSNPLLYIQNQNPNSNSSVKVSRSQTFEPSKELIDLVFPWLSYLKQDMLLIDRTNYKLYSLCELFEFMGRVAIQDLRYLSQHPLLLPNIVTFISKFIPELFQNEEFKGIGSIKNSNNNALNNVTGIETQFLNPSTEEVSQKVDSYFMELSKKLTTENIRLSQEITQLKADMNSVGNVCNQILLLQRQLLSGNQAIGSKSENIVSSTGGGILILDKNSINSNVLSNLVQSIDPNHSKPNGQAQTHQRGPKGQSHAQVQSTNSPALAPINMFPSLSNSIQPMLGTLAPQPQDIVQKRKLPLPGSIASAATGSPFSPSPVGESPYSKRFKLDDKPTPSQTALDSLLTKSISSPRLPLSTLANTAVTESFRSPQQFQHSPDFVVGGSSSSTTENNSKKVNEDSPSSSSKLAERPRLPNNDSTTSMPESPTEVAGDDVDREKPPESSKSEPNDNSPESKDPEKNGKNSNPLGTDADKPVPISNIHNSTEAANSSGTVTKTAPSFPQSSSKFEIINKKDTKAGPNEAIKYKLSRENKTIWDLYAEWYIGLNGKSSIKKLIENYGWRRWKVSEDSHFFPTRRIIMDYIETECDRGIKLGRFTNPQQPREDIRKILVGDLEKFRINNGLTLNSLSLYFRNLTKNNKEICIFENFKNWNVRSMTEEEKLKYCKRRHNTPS
How it was run: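 GST-tagged yeast TFs (full-length or DNA-binding domain) were made by PURExpress in vitro transcription/translation and applied at about 100-200 nM to universal all-10-mer Agilent arrays. The arrays were made double-stranded by primer extension, on fresh or once-stripped slides. Bound protein was detected with fluorescent anti-GST, and scans were normalised with masliner. Each ungapped eight-base word, pooled with its reverse complement, received an E-score (modified Wilcoxon-Mann-Whitney statistic) from the Universal PBM Analysis Suite.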

Row | Sequence | PBM E-score
1 | CTGTTGGC | 0.168
2 | TCGTTAGA | -0.105
3 | GGCTGGGA | -0.188
4 | GTATAAAA | 0.115
5 | GCCTCTCA | -0.0769
6 | CATCCCGA | -0.0295
7 | GGTTTCAC | -0.0347
8 | GTAACTTA | 0.0639
9 | TGTTAGAA | 0.0895
10 | ACACCTAT | 0.0167
11 | ACACTGTG | 0.0228
12 | AAAGGGGA | 0.197
13 | TCCGAACA | 0.123
14 | ACACGCAC | 0.0159
15 | CGCGCGAC | -0.16
16 | TCTTAGCA | -0.0471
17 | AGTAAGTG | -0.165
18 | GGCGCGAA | 0.0684
19 | ATATATTA | 0.0581
20 | GTGAACAC | -0.209
21 | AGTGACCA | -0.0011
22 | GCTACCCC | 0.00114
23 | CGTACCAC | 0.17
24 | CAGCAGCC | 0.359
25 | AACACCTA | -0.121

Row | Sequence | PBM E-score
26 | CACGCAAC | 0.0588
27 | ACGGTCAC | -0.137
28 | CCCATGCC | 0.04
29 | ACGCCACG | -0.233
30 | GACACACA | 0.0127
31 | ATCCGCCC | -0.214
32 | CCGCCAGA | 0.144
33 | CAGAAGGG | -0.0113
34 | TCCAGTAA | 0.21
35 | AGTGTTTG | -0.114
36 | TACTAGCA | 0.109
37 | CTTAGGAC | -0.0453
38 | CCCACGAA | 0.0881
39 | ATCATGAG | -0.24
40 | GATACCTA | 0.0383
41 | ATTTCGCC | 0.0106
42 | CGTTTCTA | -0.00405
43 | AGCGAACG | -0.216
44 | CGGTTGCA | -0.115
45 | ACGAATCG | -0.0805
46 | CGGAGCCG | 0.0209
47 | GATACAGA | 0.145
48 | CGGCTGAC | -0.0859
49 | CTTCTCGC | -0.0601
50 | AGCTACAC | 0.109

Row | Sequence | PBM E-score
51 | AACTGGCC | -0.022
52 | CCAAGATA | 0.00341
53 | AGCGTTAT | -0.0559
54 | ACGATGTC | 0.0246
55 | GATATCTA | -0.0937
56 | CATCGCCA | -0.0864
57 | AAACCCTT | -0.111
58 | GAAGGTGC | 0.0418
59 | GTTCTCTA | -0.102
60 | CGCTTAGA | -0.096
61 | CATGCCAG | -0.0524
62 | CGCCGTGC | -0.00662
63 | GCTCGCGA | 0.0716
64 | GATAGGTA | 0.085
65 | AATCCTGG | 0.236
66 | ACATTTAG | -0.0569
67 | TCGATCGA | -0.201
68 | GGCTTTAA | 0.0001
69 | CAATCGGG | 0.0633
70 | CTGCGTCC | 0.0798
71 | AGCCAAAC | 0.0142
72 | CGAATCTC | 0.121
73 | ATACTAAA | 0.0949
74 | ATCGTGAG | -0.119
75 | CGCGTCAA | -0.125

Row | Sequence | PBM E-score
76 | AGCAAATG | -0.173
77 | GGCATTAC | 0.0997
78 | TAGAGACA | -0.00352
79 | ATCCTGTA | 0.28
80 | GAGATCTC | -0.275
81 | CACGAGGA | -0.15
82 | CCGAGCTA | 0.0423
83 | CATGCAAG | 0.0258
84 | TATGTAGA | -0.151
85 | AGATGAGC | -0.102
86 | GGAATATA | 0.0473
87 | CTACAGAG | -0.153
88 | AGTAACAA | 0.00147
89 | CGCCTACA | -0.0275
90 | CGCCTAGC | -0.206
91 | GCACGCAA | -0.217
92 | GAGTCATA | 0.0243
93 | ATATTTAC | 0.143
94 | GGAACGGA | -0.0468
95 | AAAAGTGA | 0.0915
96 | ATGGTGGC | 0.0364
97 | GTGATTCA | 0.0211
98 | GGTAGTTA | 0.103
99 | ACGCTGGG | -0.122
100 | CGGCGGGC | 0.0159

Row | Sequence | PBM E-score
101 | ATGGACGG | 0.101
102 | ACTGGGAT | 0.0877
103 | CGGCAGGC | -0.251
104 | AGGCAAGG | -0.236
105 | ACATATAC | -0.0232
106 | CGATGGAG | -0.213
107 | CGTAATTA | -0.121
108 | CGTACGAC | -0.279
109 | CAGATCAC | -0.045
110 | GGAGTCGA | 0.035
111 | ACTACGTG | -0.0591
112 | AAACCTTA | -0.107
113 | AAACTATA | 0.064
114 | CATCAAAG | -0.0852
115 | GGCTGCGA | 0.192
116 | AGCTAAAG | -0.226
117 | CAGTCCGC | -0.0832
118 | CACCGTGG | -0.0428
119 | CAAATACC | 0.0468
120 | CCGCTGCC | 0.0824
121 | ACGACGCC | 0.217
122 | ATGCGAGA | 0.113
123 | CGCTTGCA | -0.00059
124 | CGCCGCAG | 0.103
125 | CTCCCCTA | 0.0438

Row | Sequence | PBM E-score
126 | ATTTTACA | -0.0742
127 | ACGCCAGC | -0.202
128 | TAGCCTCA | -0.053
129 | GGCGACTA | 0.147
130 | CTCAATCC | -0.0319
131 | AAAGAATA | -0.0583
132 | GTCCTCTA | 0.2
133 | AGACTTCA | 0.0151
134 | AATAAGAA | 0.328
135 | TCCCGACA | -0.12
136 | CTTCGTGC | -0.148
137 | AGGGCGTC | 0.26
138 | CAACGGAC | -0.00395
139 | ATGGGCCC | 0.0692
140 | CACTGAAG | 0.117
141 | CGGGCCTC | -0.0105
142 | CGAGTTAA | 0.023
143 | CAAGGTCG | -0.152
144 | AAGAGTCT | 0.0305
145 | GCTGTCTA | -0.286
146 | CGATTCAG | -0.0595
147 | CCATTAGC | -0.0372
148 | AATTGGTA | 0.231
149 | TCCTAACA | 0.126
150 | AGTCGATC | -0.193

Row | Sequence | PBM E-score
151 | AGCAGGCA | -0.128
152 | TACCACAA | 0.187
153 | CTTCAGCC | -0.204
154 | ACGTAGCG | -0.13
155 | ACGACAAA | 0.254
156 | AAAACACC | -0.00688
157 | ACTATCAT | -0.0404
158 | ATGGAGTG | -0.0908
159 | AAGTGAAG | 0.0686
160 | AAACGGCT | -0.107
161 | CTTTTCCA | -0.0955
162 | ACTCCGCT | -0.0772
163 | AGTACTCG | -0.00247
164 | CGCCAGGC | -0.218
165 | ATCCCCCC | -0.166
166 | CGTATATC | 0.145
167 | ACCGCAAC | 0.0759
168 | CGTGCCTA | -0.121
169 | CTCAGGCC | -0.121
170 | TCAATCAA | 0.0107
171 | AGGTTAGA | 0.0712
172 | AGTTCACA | 0.0192
173 | AGAAGGAT | -0.242
174 | CCTTGAAG | -0.121
175 | ACCCCATA | 0.0773

Row | Sequence | PBM E-score
176 | GACACGAA | 0.082
177 | GGGTCGTA | -0.123
178 | CATGGGTC | -0.0305
179 | GAATCAAC | 0.11
180 | AGCTCTAG | -0.126
181 | TACGTGCA | -0.116
182 | CACATCAA | 0.0698
183 | GACTCCCA | 0.197
184 | GCGTTATA | -0.16
185 | GCCATTAA | 0.12
186 | GCATGCAC | -0.24
187 | CCGAATCA | -0.0631
188 | TAGGGGAA | 0.274
189 | ACAGTCCC | -0.302
190 | AGCACATA | -0.12
191 | ATGATGTA | 0.0362
192 | GTTGTCGA | 0.147
193 | GATGCACA | -0.0673
194 | ATTTCCCC | 0.09
195 | ACTCGGGC | -0.143
196 | CTAACCGC | -0.0901
197 | CCGGAGAG | -0.0489
198 | CTATAGAA | 0.0208
199 | GATGATCC | -0.0894
200 | AGGTGGTG | 0.0323

Row | Sequence | PBM E-score
201 | ACGGACCG | -0.0393
202 | GAACTTGA | 0.233
203 | AAAAGAAG | 0.309
204 | GGTATTTA | 0.0653
205 | ATGCTTTC | 0.0529
206 | TAGTCGGA | 0.178
207 | CTTACGTA | -0.154
208 | AACGAAAA | -0.126
209 | AACGAGAA | 0.0348
210 | ATCGTAGA | 0.00018
211 | TTATCGAA | 0.133
212 | CTAACTCC | -0.0198
213 | AACTTTCC | -0.105
214 | TACCTACA | 0.122
215 | ACCCGAGT | 0.005
216 | ATAAGAAA | 0.171
217 | ACTAACCG | -0.0516
218 | GATTAACA | -0.0694
219 | ACAAAGCG | 0.224
